These results are taken from the supplement of paper PMC11417369.

± gives the standard deviation of the averaged measurements. Some of the results follow.

For this test, the system named is PfAP2-EXP AP2 domain (GST-tagged). The experiment in a line: gcPBM binding intensity (ln(normalized median fluorescence intensity)); higher = stronger DNA binding. The procedure, abridged: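 Each value is the highest Masliner-normalised natural-log median intensity across replicate spots of either orientation of a probe. The probes were primer-extended double-stranded 36-bp intergenic genomic sequences on an Agilent 4 × 180k array, alongside negative controls, exposed for 1 h to GST-tagged P. falciparum DNA-binding domains expressed in E. coli. Bound protein was picked up with Alexa488 anti-GST antibody and scanned at 488 nm.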
In the case of “TATAAAAAAAAATGTGGTACATATTTCCATTTTCCA [XGTACX_site4571]”, the “gcPBM binding intensity (ln)” value was 8.11 ± 0.23. For “TATATTCCACTCATTGATTTTCTCTTCTCACAAAAA [CACACA_negctrl_site1016]” the value was 8.66 ± 0.49; for “ATCGTAGTATAATATGAACACACACCCACCCACAAA [CACACA_site8616]”, 9.46 ± 0.67. As for “TCTTCTTAACCAACTATGAAAAGGAAAAATATAACA [GTGCAC_negctrl_site565]”, the figure is 8.49 ± 0.46. As for “GAAACTATGTAATGCACACCAAAATAAAATTATTAA [CACACA_site1904]”, the “gcPBM binding intensity (ln)” value amounted to 8.53 ± 0.31.

In the case of “CATGAATTTTTTTAATGTACATTCACATCATAAAAA [XGTACX_site7475]”, the “gcPBM binding intensity (ln)” value worked out at 8.69 ± 0.29. For “ATATATTATATATATAGTACGTATATAAATTTAATT [XGTACX_site5041]” the value was 8.53 ± 0.18; for “TAAATCCGCACGCACACACACATATTAATAAAAAAA [CACACA_site7800]”, 8.61 ± 0.36.

Take “TTATTTTTATTATAAATTATAAAATATAAATAAATA [GTGCAC_negctrl_site616]”: the “gcPBM binding intensity (ln)” value stood at 7.83 ± 0.42. As to “ATTATAAAAAAGAAACGTACATATTTATTGTTTTTT [XGTACX_site2161]”, the “gcPBM binding intensity (ln)” value came out at 8.26 ± 0.26. As for “TATAATAATACTTATTGTACTATTAGTTTAATTCAT [XGTACX_site6638]”, the figure is 8.15 ± 0.39; as for “ATCTTTCAATAATTCACACATATATATATATATATA [CACACA_site4598]”, 10.2 ± 0.28. For “ATATATATATATGTACACATATATGTGTTTGTTTTT [GTGCAC_negctrl_site5]” the value was 10 ± 0.38. For “CTATTACAAAGAAATTGTACATATATATATAAAAAC [XGTACX_site8800]” the value was 8.73 ± 0.35; for “AGCCACAATACGGAAACACACAAGTTATTTTATCAT [CACACA_site2724]”, 8.46 ± 0.47. As for “AATGAAGACTTTTTTACACACTTCATATCTTATAGA [CACACA_site7046]”, the “gcPBM binding intensity (ln)” value is 8.71 ± 0.55. For “AATATTTTTAATTAATGTACATATTTATTATATAAA [XGTACX_site5112]” the value was 8.52 ± 0.33; for “AAATTTTTTCCGATTTGTACTTATATTTCTTTATTA [XGTACX_site1762]”, 8.71 ± 0.5.

As to “TTTTAACGTAATTCAAATGAGCAGAATTTTTTAAAA [CACACA_negctrl_site1800]”, the “gcPBM binding intensity (ln)” value amounted to 8.15 ± 0.54. Regarding “TTTTTATGAATTCTTTTGTTAATAATAATATGTTGT [TGCATGCA_negctrl_site198]”, the “gcPBM binding intensity (ln)” value was 8.39 ± 0.38. For “AAAAAAAAGAAAAACACACACATATTTATTTATAAC [CACACA_site6600]” the value was 8.6 ± 0.49. For “TAAATAAATTTATGTACACACACAAATAAATACATA [CACACA_site5107]”, the “gcPBM binding intensity (ln)” value was 8.63 ± 0.27. As for “TATATATTAAATTATAGTACACATTATATATAATTA [XGTACX_site4841]”, the figure is 8.38 ± 0.25; as for “TATATATATATATATAGTACACATATCACATAAATG [XGTACX_site6379]”, 10.2 ± 0.23; as for ATAATATATGTATGTATGCACTTTTATTATTTTTTT, 8.45 ± 0.36.

Turning to “ATAATATATATATTTTGTACACATGAAAAGGAGGAT [XGTACX_site5034]”, the “gcPBM binding intensity (ln)” value came to 9.21 ± 0.47. On to “AATAAACATTATTTTCGTATTCCAATTCTTTTTTTT [XGTACX_negctrl_site374]”, for which the “gcPBM binding intensity (ln)” value amounted to 8.09 ± 0.18. As for TTGATAAAATCACTGGTGCATGTAGATATATAATAT, the figure is 8.84 ± 0.13; as for “TTTTTTTAAAACAAAAAAAAAAAAAAAAAAAAAAAA [TGCATGCA_negctrl_site418]”, 7.96 ± 0.39; as for “TTCTTTTTTATTTATACATGCAATAAAAAATTGATT [TGCATGCA_site730]”, 8.81 ± 0.27. As for “AAGAGAGAGAAATATGCACACATAAGGGAAATAAAT [CACACA_site8300]”, the figure is 8.61 ± 0.13; as for “TATATATGTATGTATGTACACACAAAAAATGGAATA [CACACA_site9235]”, 8.96 ± 0.42. Consider “TTATTATTAGAAAAAAGTACACATATAAAATGTTAC [XGTACX_site6426]”, for which the “gcPBM binding intensity (ln)” value worked out at 8.29 ± 0.38.

For the sequence “GGATACATATGTAAAAGTACACATGAATATATACAT [XGTACX_site6469]”, the “gcPBM binding intensity (ln)” value is 8.61 ± 0.31. For “GTAAAATTAAAAATAACACACAAAAAAAAAAAAAAA [CACACA_site800]” the value was 8.18 ± 0.44. As for “AAAAAAAAAAGAAAAAGTACATACATACATATATAT [XGTACX_site6405]”, the figure is 8.46 ± 0.36. As for “TTTTAATTAGTACAAACACACATATACAGACAAAAA [CACACA_site2563]”, the figure is 8.98 ± 0.45; as for “AGACGATAAATCATTCATTCATTTACCATCCAAAAA [CACACA_negctrl_site802]”, 8.43 ± 0.47. As to “TAATATAGAAAATGCATACACACTTTATATATATAT [CACACA_site911]”, the “gcPBM binding intensity (ln)” value amounted to 9.66 ± 0.26. As for “TACTATTATTATTGCACACTTATTATCCCTCGGATA [CACACA_site162]”, the figure is 8.91 ± 0.092; as for “TGATCATAGAAACACACACACAAAAAAAAAAAAAAA [CACACA_site4008]”, 7.98 ± 0.49; as for “AATATATATTAATACACACACACATATATATATATA [CACACA_site3786]”, 10.1 ± 0.47.

Regarding “AAAATTTTTTTTGGCGCACACTAATAATAAAATATA [CACACA_site470]”, the “gcPBM binding intensity (ln)” value was found to be 8.6 ± 0.35. “AAATATTATTGACGATGTACTTCTATTCATAAGTAT [XGTACX_site3964]”: the “gcPBM binding intensity (ln)” value amounted to 8.46 ± 0.5.

Regarding “GAATAATATGGACATACACACATATACATACCTATA [CACACA_site7075]”, the “gcPBM binding intensity (ln)” value worked out at 8.79 ± 0.28.

Regarding “CTTTTTAATGAATACACACACACACCGATATATATA [CACACA_site5296]”, the “gcPBM binding intensity (ln)” value came out at 8.79 ± 0.52. As for “TAAAACTTATACAAATGTACAAATATATATATATAT [XGTACX_site4661]”, the figure is 10 ± 0.47; as for “TATAACAAAAAAAAATAAAAAATAAAACTATATATA [CACACA_negctrl_site504]”, 8.31 ± 0.45; as for “ACCTAAAATAACTACACACACATAAAAAAAAAAAAA [CACACA_site2529]”, 8.27 ± 0.62. On to “TTTTTTTTTTATTCTTCACACATTTCCAATAAAAAA [CACACA_site5601]”, for which the “gcPBM binding intensity (ln)” value is 8.83 ± 0.48. As for “GTTATTATATATATGTGTACTTAAAAATTTTATGTC [XGTACX_site6084]”, the figure is 8.93 ± 0.25; as for “AAAAAAAAAAAAAAAACACACAGAAATATATATATA [CACACA_site4611]”, 9.54 ± 0.21. As for “AAAGAAGGGAAACACACACACACACCCACAAAAAAA [CACACA_site3766]”, the figure is 8.68 ± 0.49; as for “TGTATATATATTTATGCATGCTGTGTGTATTCTTTT [TGCATGCA_site74]”, 9.52 ± 0.4; as for “TTTATATATTTTAGGAGTACATTAAATTATACCTTA [XGTACX_site5600]”, 8.18 ± 0.24. For “AATAAAAAAAAAATAAATTTAATAATAATAATAAAA [CACACA_negctrl_site569]” the value was 8.23 ± 0.33.
